PubChem BioAssay AID2675 (National Center for Advancing Translational Sciences (NCATS), 2010)
About 100 (0.036%) of roughly 280,000 compounds were called active. Inconclusive results, whose numbers are uncertain, are shown with a selection of clear calls. Calls follow the shape of the dose curve; as a rule, active = well fitted inhibition curve with a large enough effect in the signal ratio, with a control signal flat (not every such curve was filed as active); inconclusive = small, poorly fitted or top-dose-only effect, or effect the other way, or a change in a side signal; inactive = no such curve, though single readings can be large or run the other way; the % refers to the signal ratio. Where the call is inconclusive, the potency comes from a doubtful curve fit. “Side channel” marks fits to a control or component signal instead of the main read-out.

The molecules below were run against Muscleblind-like protein 1 (Homo sapiens) (UniProt Q9NR56) (assay: qHTS Assay for Inhibitors of MBNL1-poly(CUG) RNA binding). Conditions: TR-FRET MBNL1-His/biotin-(CUG)12 binding, 665/545 ratio; activity change, negative = inhibition: at 57.5 µM (top of the series).
UniProt Q9NR56, sequence (Q9NR56 whole entry, looked up): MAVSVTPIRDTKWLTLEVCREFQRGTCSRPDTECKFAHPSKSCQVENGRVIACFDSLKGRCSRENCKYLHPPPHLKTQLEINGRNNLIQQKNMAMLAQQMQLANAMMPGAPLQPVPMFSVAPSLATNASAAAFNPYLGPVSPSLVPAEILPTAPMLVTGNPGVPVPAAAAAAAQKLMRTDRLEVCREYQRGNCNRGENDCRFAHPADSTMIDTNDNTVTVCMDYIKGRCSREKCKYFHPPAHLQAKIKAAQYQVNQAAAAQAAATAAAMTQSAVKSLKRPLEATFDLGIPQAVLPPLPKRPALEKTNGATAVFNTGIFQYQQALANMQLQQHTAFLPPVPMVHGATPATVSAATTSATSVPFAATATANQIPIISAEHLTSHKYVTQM
In short: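 MBNL1-His + Biotin-(CUG)12, cpd titration 92 nM–58 uM; Tb anti-His Ab 0.055 ng/ul, SA-XL665 5 nM (final); 60 min RT; ratiometric 665/545 nm, Ex 340 nm; normalized to buffer and full-complex controls.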
% is scaled to controls: 0 for no effect and ±100 for the full control effect; potency is read from the fitted curve at half-maximal effect; tags tell the direction and shape of the fitted curve or compound fluorescence and quenching.

SMILES	Potency	activity change, negative = inhibition
C=CCOc1ccc(/C=C\c2nc(O)c([N+](=O)[O-])c(=O)[nH]2)cc1OC	inconclusive: 28.2 µM [quencher, side channel, partial curve]	–
Cc1ccc(NS(=O)(=O)c2c(C)[nH]c(C)c2C(=O)N2CCCC2)cc1Cl	–	inactive: -4.69%
CCOC(=O)CC(=O)CSc1nc2c(sc(=S)n2-c2ccc(OCC)cc2)c(=O)[nH]1	inconclusive: 20 µM [quencher, side channel, partial curve]	–
O=c1[nH]c2ccccc2nc1-c1ccccc1	inconclusive: 25.1 µM [quencher, single point]	–
COc1ccc(C(=O)N/C(=C\c2cccs2)c2nc3ccccc3[nH]2)cc1OC	inconclusive: 28.2 µM [quencher, side channel, partial curve]	–
CCOc1cc(/C=C2\SC(=N)N(c3nonc3N)C2=O)ccc1OCCN1CCOCC1	inconclusive: 12.6 µM [quencher, side channel, partial curve]	–
CNC(=O)c1sc(-c2ccccc2)nc1C	inconclusive: 28.2 µM [quencher, side channel, single point]	–
CCOc1ccc(-c2nnn(CC(=O)c3cc(OC)ccc3OC)n2)cc1	–	inactive: 2.63%
CN(C)c1ccc(/C=c2\sc3n(c2=O)CCCN=3)cc1	inconclusive: 14.1 µM [quencher, side channel, partial curve]	–
COc1cc(C(c2c(C)[nH][nH]c2=O)c2c(C)[nH][nH]c2=O)ccc1OC(C)C	inconclusive: 11.2 µM [quencher, side channel, partial curve]	–
COCCn1c(SCc2ccc(OC)c(F)c2)nc2ccccc2c1=O	–	inactive: 9.63%
O=C1CCC(=O)N1c1ccc(NC2CCN(Cc3ccccc3)CC2)c([N+](=O)[O-])c1	inconclusive: 3.16 µM [quencher, side channel, partial curve]	–
CCOc1ccc(C2/C(=C(\O)c3ccc(OC)c(OC)c3)C(=O)C(=O)N2c2cc(C)on2)cc1OC (configuration not stated)	inconclusive: 17.8 µM [quencher, side channel, partial curve]	–
CC1CCCCC1N(C)C1CCN(C(=O)CNC(=O)/C=C/c2cccc(Cl)c2)CC1 (configuration not stated)	inconclusive: 20 µM [quencher, side channel, partial curve]	–
O=C(O)CCN1C(=O)c2ccc(NC(=O)c3ccco3)cc2C1=O	inconclusive: 15.8 µM [quencher, side channel, partial curve]	–
O=c1cc(CSc2n[nH]c(-c3ccncc3)n2)nc2sccn12	inconclusive: 50.1 µM [inhibitor, partial curve]	–
CCCOc1cccc(NC(=O)OC2CCN(C)CC2)c1	inconclusive: 14.1 µM [fluorescent, side channel, partial curve]	–
COc1ccc(/C=C(/NC(=O)c2ccco2)C(=O)Nc2cccc(C(=O)O)c2)cc1	inconclusive: 39.8 µM [quencher, side channel, single point]	–
COc1ccc(-n2cnnc2SC(C)C(=O)Nc2cccc([N+](=O)[O-])c2)cc1 (configuration not stated)	inconclusive: 10 µM [quencher, side channel, partial curve]	–
Cc1ccc(C(=O)NC(=S)NNC(=O)c2ccc([N+](=O)[O-])cc2)cc1	–	inactive: 6.75%
S=c1[nH]nc(-c2ccc(Br)o2)n1Cc1ccccc1	–	inactive: 5.75%

SMILES	Potency	activity change, negative = inhibition
COc1cccc(/C=N/NC(=O)c2cnccn2)c1	inconclusive: 14.1 µM [quencher, side channel, partial curve]	–
Cc1cccc2[nH]c(CCNC(=O)C3CCC(=O)N(CCc4cccc(F)c4)C3)nc12 (configuration not stated)	–	inactive: -4.47%
COc1cccc2c(=O)n(CC(=O)Nc3ccccc3F)ccc12	inconclusive: 39.8 µM [fluorescent, side channel, partial curve, poor fit]	–
Cc1c(O)ccc2c(CC(=O)N[C@@H](Cc3ccc(O)cc3)C(=O)O)cc(=O)oc12	–	inactive: 5.54%
CCOC(=O)c1cc2c(=O)n3ccccc3nc2n(CCCOC)c1=NC(=O)C(C)(C)C	inconclusive: 8.91 µM [quencher, side channel, partial curve]	–
CC1CN(c2ncnc3c2oc2ccccc23)CC(C)O1 (configuration not stated)	–	inactive: -1.3%
Cc1nnc(SCC(=O)Nc2ccc3c(c2)OCCO3)n1CC1CCCO1 (configuration not stated)	–	inactive: 11.1%
COc1ccc(C2c3ccc4ccccc4c3Oc3ncn(CCCO)c(=N)c32)cc1 (configuration not stated)	–	inactive: -11%
Cn1cc([N+](=O)[O-])c(C(=O)NNC(=O)c2ccc([N+](=O)[O-])cc2Cl)n1	inconclusive: 15.8 µM [quencher, side channel, partial curve]	–
Cc1cc(C)nc(SCC(=O)c2ccc([N+](=O)[O-])cc2)n1	inconclusive: 11.2 µM [quencher, side channel, partial curve]	–
O=C(/C=C/c1ccco1)Nc1nc(-c2ccccn2)cs1	inconclusive: 31.6 µM [quencher, side channel, partial curve]	–
Cc1ccc(NC(=O)CCC(=O)NNC(=S)Nc2ccccc2)c(C)c1	inconclusive: 14.1 µM [quencher, side channel, partial curve]	–
COc1ccc(/C=C2\SC(=O)N(CCC(=O)N3CCCCC3CCO)C2=O)cc1 (configuration not stated)	inconclusive: 7.94 µM [quencher, full curve]	–
CCC(N=c1cc(-c2ccc(OC)c(OC)c2)oc2ccc(C)cc12)C(=O)O (configuration not stated)	inconclusive: 28.2 µM [quencher, side channel, partial curve]	–
Cc1cccc(-c2n[nH]c(=S)n2Cc2ccccc2)c1	inconclusive: 6.31 µM [quencher, side channel, single point]	–
O=C(Nc1cccc([N+](=O)[O-])c1)C1CC(=O)N(C2CCCCC2)C1 (configuration not stated)	inconclusive: 28.2 µM [quencher, single point]	–
COc1ccc(-c2cc(C(=O)OCC(=O)N(C)C)c3ccccc3n2)cc1	inconclusive: 15.8 µM [quencher, side channel, partial curve]	–
CC1CCc2c(sc(NC(=O)CCCn3cnc([N+](=O)[O-])n3)c2C(N)=O)C1 (configuration not stated)	inconclusive: 15.8 µM [quencher, partial curve]	–
CN1CCN(C(=O)c2ccc3c(c2)NC(=O)/C(=C/c2ccccc2)S3)CC1	inconclusive: 14.1 µM [quencher, side channel, partial curve]	–
COc1cc(/C=N/Nc2nn3cnnc3c3ccccc23)ccc1O	–	inactive: 1.49%
COc1ccc([N+](=O)[O-])cc1NC(=O)CC(C)c1ccccc1 (configuration not stated)	inconclusive: 20 µM [quencher, side channel, partial curve]	–

SMILES	Potency	activity change, negative = inhibition
CCn1nc(NC(=O)c2ccco2)c2cc3ccc(C)cc3nc21	inconclusive: 15.8 µM [quencher, side channel, partial curve]	–
Cc1ccc(-n2ncc3c(N4CCCC4)ncnc32)c(C)c1	inconclusive: 17.8 µM [quencher, side channel, partial curve, poor fit]	–
CCOC(=O)Cn1nc(NC(=O)c2ccc3c(c2)OCO3)cc1C	inconclusive: 25.1 µM [quencher, side channel, partial curve]	–
Cc1cc(N2CCOCC2)ccc1/C=C1/SC(=O)NC1=O	inconclusive: 12.6 µM [quencher, side channel, partial curve]	–
COc1ccc(C2=NS(=O)(=O)N(C)C(C(=O)N(C)Cc3ccccc3)=C2)cc1OC	inconclusive: 14.1 µM [quencher, side channel, partial curve]	–
CS(=O)(=O)Nc1cccc(-c2cnc3ccccc3n2)c1	inconclusive: 35.5 µM [quencher, side channel, partial curve]	–
Cc1ccc2[nH]cc(/C=C/c3cc[n+](C)cc3)c2c1	inconclusive: 7.08 µM [quencher, partial curve]	–
CC(c1ccccc1)N1C(=O)c2ccc(C(=O)NCc3ccco3)cc2C1=O (configuration not stated)	inconclusive: 28.2 µM [quencher, single point]	–
Cc1ccnc(NC(=O)c2ccc3c(c2)OCO3)c1	–	inactive: 13.4%
COc1ccc(OC)c(S(=O)(=O)N2CCC(C(=O)NCc3ccccc3OC)CC2)c1	inconclusive: 39.8 µM [fluorescent, side channel, partial curve]	–
O=C(Nc1ccc([N+](=O)[O-])cc1)N1CCCCCC1	inconclusive: 28.2 µM [quencher, single point]	–
O=C(CSc1nnnn1-c1cccc(Cl)c1)Nc1ccc2c(c1)CCC2	–	inactive: -21.8%
CCn1c(CSc2nc3ccccc3s2)nc2ccccc21	–	inactive: 0.744%
COc1cc(C2NC(=S)NC(C)=C2C(=O)c2ccccc2)ccc1O (configuration not stated)	–	inactive: -9.1%
COc1ccc(/C=C2\Cc3ccccc3C2=O)cc1OC	inconclusive: 14.1 µM [quencher, side channel, partial curve]	–
S=c1[nH]ccn1Cc1ccccc1	–	inactive: 0.48%
COC(=O)C1C(O)=C(C=Nc2ccc(N)cc2)C(=O)CC1(C)C (configuration not stated)	inconclusive: 22.4 µM [quencher, side channel, partial curve, poor fit]	–
Cc1ccc(C(=O)NCCc2ccc(S(N)(=O)=O)cc2)cc1[N+](=O)[O-]	inconclusive: 20 µM [quencher, side channel, single point]	–
O=C(CCCOc1ccccc1)Nc1ccc2c(c1)OCCO2	inconclusive: 39.8 µM [quencher, side channel, single point]	–
CC(OC(=O)Cc1n[nH]c(=O)c2ccccc12)C(=O)Nc1ccccc1[N+](=O)[O-] (configuration not stated)	inconclusive: 14.1 µM [quencher, side channel, partial curve]	–
